Read-outs that look alike come from different tables or passages of the source.
B1: Hu 52H5D3B8-8-mcc-AAN-Exatecan (conjugate)
heavy: EVQLVQSGAEVKKPGASVKVSCKASGYTFTDYEMHWVRQAPGQGLEWMGAIHPGSGGTAYNQKFKGRVTMTADKSISTAYMELSRLRSDDTAVYYCTRFYSYAYWGQGTLVTVSS[not shown - human IgG1 constant region]
light: DVVMTQTPLSLSVTPGQPASISCRSSQSLVHSNGNTYLQWYLQKPGQSPQLLIYKVSNRFSGVPDRFSGSGSGTDFTLKISRVEAEDVGVYFCSQSIHVPYTFGGGTKVEIKRTVAAPSVFIFPPSDEQLKSGTASVVCLLNNFYPREAKVQWKVDNALQSGNSQESVTEQDSKDSTYSLSSTLTLSKADYEKHKVYACEVTHQGLSSPVTKSFNRGEC
notes: antibody conjugate of Hu 52H5D3B8-8 antibody with mcc-AAN-Exatecan, DAR of 8.0
B2: Hu 52H5D3B8-8-mcc-AAQ-Exatecan [ADC-4] (conjugate)
heavy: EVQLVQSGAEVKKPGASVKVSCKASGYTFTDYEMHWVRQAPGQGLEWMGAIHPGSGGTAYNQKFKGRVTMTADKSISTAYMELSRLRSDDTAVYYCTRFYSYAYWGQGTLVTVSS[not shown - human IgG1 constant region]
light: DVVMTQTPLSLSVTPGQPASISCRSSQSLVHSNGNTYLQWYLQKPGQSPQLLIYKVSNRFSGVPDRFSGSGSGTDFTLKISRVEAEDVGVYFCSQSIHVPYTFGGGTKVEIKRTVAAPSVFIFPPSDEQLKSGTASVVCLLNNFYPREAKVQWKVDNALQSGNSQESVTEQDSKDSTYSLSSTLTLSKADYEKHKVYACEVTHQGLSSPVTKSFNRGEC
notes: antibody conjugate of Hu 52H5D3B8-8 antibody with mcc-AAQ-Exatecan, DAR of 8.0
B3: Hu 52H5D3B8-8-mc-AAQ-Exatecan (conjugate)
heavy: EVQLVQSGAEVKKPGASVKVSCKASGYTFTDYEMHWVRQAPGQGLEWMGAIHPGSGGTAYNQKFKGRVTMTADKSISTAYMELSRLRSDDTAVYYCTRFYSYAYWGQGTLVTVSS[not shown - human IgG1 constant region]
light: DVVMTQTPLSLSVTPGQPASISCRSSQSLVHSNGNTYLQWYLQKPGQSPQLLIYKVSNRFSGVPDRFSGSGSGTDFTLKISRVEAEDVGVYFCSQSIHVPYTFGGGTKVEIKRTVAAPSVFIFPPSDEQLKSGTASVVCLLNNFYPREAKVQWKVDNALQSGNSQESVTEQDSKDSTYSLSSTLTLSKADYEKHKVYACEVTHQGLSSPVTKSFNRGEC
notes: antibody conjugate of Hu 52H5D3B8-8 antibody with mc-AAQ-Exatecan, DAR of 8.0

Key:
Huh7 cells = conditions: binding to Huh7 cells, FACS
Protocol: Huh7 liver cancer cells growing in log phase were collected. After centrifugation, the cells were resuspended in FACS buffer (PBS + 3% FBS), the cell density was adjusted, and the cells were dispensed to a 96-well U-bottom cell culture plate, such that each well contained 200,000-500,000 cells. The antibody or ADC diluted with FACS buffer in a 4-fold gradient manner was added and uniformly mixed, such that the final starting concentration of each sample was finally 10 µg/mL. The 96-well plate was incubated at 4°C for 60 min. The cells in the wells were thoroughly washed with FACS buffer to remove unbound antibodies or ADCs. Goat anti-Human IgG (H+L) Cross-Adsorbed Secondary Antibody, Alexa Fluor™ 647 (Invitrogen, #A-21445), diluted with FACS buffer at 1 : 1,000 was added and incubated at 4°C in the dark for 30-60 min. The cells in the wells were thoroughly washed with FACS buffer to remove unbound secondary antibodies. The cell sample was analyzed for fluorescence signal by CytoFLEX flow cytometer (Beckman Coulter). […] Table 3: Binding of GPC3 antibody and each ADC to Huh7 cells (EC50)

[1] = system: PDX model LI6653 of nude mice with human liver cancer; conditions: tail vein on Day 0 and Day 7, Day 16
Protocol: The in vivo anti-tumor activities of Hu 52H5D3B8-8-MCC-AAN-Exa (ADC-2) and Hu 52H5D3B8-8-MCC-AAQ-Exa (ADC-4) were also tested in the LI6653 PDX model of mice with human liver cancer for comparison.
The process of the establishment of a PDX model of nude mice with human liver cancer was as follows: Tumor tissues were harvested from tumor-bearing mice in a model with a human-derived liver cancer xenograft, cut into tumor fragments with a diameter of 2-3 mm, and inoculated subcutaneously at the right anterior scapular region of BALB/c Nude mice. When the average tumor volume of the tumor-bearing mice reached about 170-200 mm^3, they were randomized and administrated according to tumor size, and the day when grouping was carried out was recorded as Day 0. Six mice were included in each group. Tumor volume uniformity and body weight balance between groups were ensured. There were a total of 6 groups, including vehicle group, Non-binding-MCC-AAN-Exa (DAR8) (10 mg/kg) control administration group, Hu 52H5D3B8-8-MCC-AAN-Exa (ADC-2, 10 and 3 mg/kg) administration groups, and Hu 52H5D3B8-8-MCC-AAQ-Exa (ADC-4, 10 and 3 mg/kg) administration groups. On Day 0 and Day 7, administration was carried out via the tail vein once, respectively.
Data analysis: The mice were measured twice a week for body weight and tumor volume during the experiment. The calculation formula for the tumor volume (TV) is: TV = l × w^2 / 2, in which l and w represent the measured length and width of the tumor, respectively. According to the measurement results, the relative tumor volume (RTV) was calculated by RTV = Vf / V0, in which V0 was the tumor volume measured at the time of grouping for administration (i.e., Day 0), and Vf was the tumor volume measured on the last day. Relative tumor proliferation rate (T/C) (%) = (RTV in drug administration group / RTV in vehicle group) × 100%. When T/C (%) ≤ 40% and P < 0.05, the test sample was believed to have a significant inhibitory effect on tumor growth.

[2] = system: PDX model LIV#219 of nude mice with human liver cancer; assay: In vivo anti-tumor activity, LIV#219 PDX model; set-up: species or system BALB/c nude mice; conditions: tail vein on Day 0 and Day 7, Day 29
Protocol: The in vivo anti-tumor activity of GPC3-ADC was tested in the LIV#219 PDX model of mice with human liver cancer.
The process of the establishment of a LIV#219 PDX model of nude mice with human liver cancer (Genendesign Co., Ltd.) was as follows: A tumor tissue with a volume size of about 15-30 mm^3 was transplanted subcutaneously under the right rear back of the BALB/c nude mice. […] Six mice were included in each group.

Molecule | EC50 (Huh7 cells) | relative tumor proliferation rate T/C (%) ([1]; 3 mg/kg) | relative tumor proliferation rate T/C (%) ([1]; 10 mg/kg) | relative tumor proliferation rate T/C (%) ([2]; 3 mg/kg) | relative tumor proliferation rate T/C (%) ([2]; 10 mg/kg)
B1 | 0.06097 µg/mL | 31.81% | 17.46% | 77.71% | 12.44%
B2 | 0.06752 µg/mL | 21.10% | 13.05% | 53.71% | 7.37%
B3 | 0.06331 µg/mL | – | – | 47.29% | 6.75%

Reference: patent EP4775226A1, “ANTIBODY DRUG CONJUGATE TARGETING GPC3 AND USE THEREOF” (priority 2023, dated 2025)
